About 16,000 (7.3%) of roughly 220,000 compounds were called active. The shares of active, inactive and inconclusive entries below differ from those in the screen. Calls come from the whole dose curve; as a rule, active = well fitted inhibition curve with a large enough effect (not every such curve was filed as active); inconclusive = small, poorly fitted or top-dose-only effect, or another doubt; inactive = no such curve, though single readings can be large or run the other way. Potencies of inconclusive entries are left out as doubtful fits.
target: Aldehyde dehydrogenase 1A1 (Homo sapiens) (UniProt P00352); assay: qHTS Assay for Inhibitors of Aldehyde Dehydrogenase 1 (ALDH1A1); conditions: Purified ALDH1A1, NADH fluorescence, propionaldehyde substrate; series mostly up to 75.3 µM; activity, negative = inhibition: at the top concentration;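 for activity, negative = inhibition: plate controls were no enzyme wells and a reference inhibitor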
Sequence of UniProt P00352 (P00352 whole entry, looked up): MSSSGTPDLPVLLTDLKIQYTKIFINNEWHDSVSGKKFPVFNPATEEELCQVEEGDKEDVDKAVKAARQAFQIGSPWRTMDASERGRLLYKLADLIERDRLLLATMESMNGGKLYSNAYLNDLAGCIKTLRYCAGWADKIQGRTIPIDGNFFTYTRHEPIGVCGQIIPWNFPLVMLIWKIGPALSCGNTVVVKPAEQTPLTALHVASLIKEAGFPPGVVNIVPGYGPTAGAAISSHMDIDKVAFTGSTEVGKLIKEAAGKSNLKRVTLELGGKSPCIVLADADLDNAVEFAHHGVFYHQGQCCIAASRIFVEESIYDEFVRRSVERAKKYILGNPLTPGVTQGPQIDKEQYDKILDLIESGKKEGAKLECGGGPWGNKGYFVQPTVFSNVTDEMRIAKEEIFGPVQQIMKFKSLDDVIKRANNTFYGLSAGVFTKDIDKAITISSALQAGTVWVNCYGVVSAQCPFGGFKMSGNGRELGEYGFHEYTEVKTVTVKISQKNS
Potency is the fitted concentration of half-maximal effect; tags give direction and shape of the fitted curve.

| Structure (SMILES) | Potency | activity, negative = inhibition |
| --- | --- | --- |
| O=S(=O)(Cc1ccccc1Cl)NCc1ccccc1 | inconclusive [inhibitor, single point] |  |
| COc1ccc(CCNC(=O)CSc2ccc(-c3ccncc3)nn2)cc1 |  | inactive: -3.73% |
| CCC(C)NS(=O)(=O)c1ccc(S(=O)(=O)Nc2cc3c(cc2C(C)=O)OCO3)cc1 (stereo unspecified) | inconclusive [inhibitor, partial curve] |  |
| Cc1c(C#N)c(NC(=O)CCl)n(Cc2ccc(F)cc2)c1C | inconclusive [inhibitor, single point] |  |
| NC(=O)c1ccc2nc(NC(=O)c3ccc(N)cc3)sc2c1 | inconclusive [inhibitor, single point] |  |
| COCCn1nnnc1C(c1cccc(C#N)c1)N1CCCCCC1 (stereo unspecified) | inconclusive [inhibitor, single point] |  |
| CCCN1CCN(C(=S)Nc2ccc([N+](=O)[O-])cc2)CC1 | active: 31.6 µM |  |
| Cc1cc(S(=O)(=O)NCc2ccc(S(N)(=O)=O)cc2)c(C)s1 |  | inactive: -7.96% |
| COc1ccc(N2C(=O)CC(N3CCC(O)(c4ccc(Br)cc4)CC3)C2=O)cc1 (stereo unspecified) |  | inactive: 2.06% |
| Cc1ccccc1C1NC(=S)NC2=C1C(=O)CC(C)(C)C2 (stereo unspecified) | inconclusive [inhibitor, single point] |  |
| CCC(CO)NCc1ccc(-c2ccccc2)cc1 (stereo unspecified) |  | inactive: 6.75% |
| O=C1N=C(N2CCCC2)S/C1=C\c1ccccc1 | inconclusive [inhibitor, single point] |  |
| COCCNC(=O)CSc1nc(-c2ccccc2)c(-c2ccccc2)o1 | inconclusive [inhibitor, partial curve] |  |
| CNc1nc2[nH]c(=O)c3c(c2s1)OC(N)=C(C#N)C3c1cccc(F)c1 (stereo unspecified) | active: 7.08 µM |  |
| Cc1cc(-c2cc(-c3ccc(Cl)cc3)nc(N)c2C#N)co1 | inconclusive [inhibitor, partial curve] |  |
| CC(=O)c1ccc(N2CCN(S(=O)(=O)c3ccccc3)CC2)c(F)c1 | inconclusive [inhibitor, single point] |  |
| CC1=C(C(=O)Nc2cccc(C)c2C)C(c2cccs2)NC(=S)N1 (stereo unspecified) |  | inactive: 0.013% |
| N#Cc1c(C#N)c(O)c2ccccc2c1O | inconclusive [inhibitor, partial curve] |  |
| NS(=O)(=O)c1ccc(CCNC(=O)COC(=O)/C=C/c2ccc(Cl)cc2)cc1 |  | inactive: -4.39% |
| CCNc1ncc2nc(-c3cccs3)c(=O)n(Cc3cccs3)c2n1 | inconclusive [inhibitor, single point] |  |
| COc1cccc2c1CCC1CC(=O)CC[C@@]21C (stereo partly specified) | inconclusive [inhibitor, partial curve] |  |
| CC(=O)Nc1ccc2c(CN3C(=O)NC(C)(c4ccc(C)cc4)C3=O)cc(=O)oc2c1 (stereo unspecified) | inconclusive [inhibitor, partial curve] |  |
| O=C(NCCN1C(=O)S/C(=C\c2ccccc2)C1=O)C1CCN(S(=O)(=O)c2cccs2)CC1 | inconclusive [inhibitor, partial curve] |  |

| Structure (SMILES) | Potency | activity, negative = inhibition |
| --- | --- | --- |
| CC(C)Cn1c(CN2CCN(C(=O)c3ccco3)CC2)nc2c1c(=O)n(C)c(=O)n2C |  | inactive: -7.26% |
| COc1ccc(CCn2c(C)cc(C(=O)CSc3nnnn3-c3ccccc3)c2C)cc1 | inconclusive [inhibitor, full curve] |  |
| CCNC(=O)COc1ccc(Br)cc1Cl |  | inactive: 6.58% |
| O=C(NCCNc1ccc([N+](=O)[O-])cc1C(F)(F)F)c1ccc(F)cc1 | inconclusive [inhibitor, partial curve] |  |
| Cc1noc(/C=C/N(C)C)c1S(=O)(=O)N1CCCC(C(=O)NCc2ccco2)C1 (stereo unspecified) | inconclusive [inhibitor, single point] |  |
| COc1ccccc1N1CCN(C(=O)CSc2nc3ccccc3o2)CC1 | active: 8.91 µM |  |
| O=C(Cc1c(O)c2ccccc2[nH]c1=O)OC1CCCCC1 | inconclusive [inhibitor, single point] |  |
| CN(C)CCCOC(=O)c1sc2ccccc2c1Cl | inconclusive [inhibitor, single point] |  |
| CN(C)c1ccc(C2N(c3ccc(F)cc3)C(=O)C3CCCN32)cc1 (stereo unspecified) | active: 0.631 µM |  |
| Cc1nc(N2CCC(C)CC2)c(C#N)c(C)c1[N+](=O)[O-] | inconclusive [inhibitor, partial curve] |  |
| COc1ccc(NC(=O)C(c2ccc(OC)cc2)N(C)C(=O)CNC(C)=O)cc1 (stereo unspecified) |  | inactive: 12% |
| CN(C(=S)Nc1ccccc1)c1ccccc1 |  | inactive: 1.45% |
| COc1cccc(C(=O)/C=C/Nc2ccc(S(=O)(=O)Nc3onc(C)c3C)cc2)c1 | inconclusive [inhibitor, full curve] |  |
| CSc1cccc(NC(=O)CN2C(=O)c3ccccc3S2(=O)=O)c1 | inconclusive [inhibitor, single point] |  |
| N#CC1=C(N)C(C#N)(C#N)[C@H](c2ccoc2)[C@H]2CN(Cc3ccccc3)CC=C12 | inconclusive [inhibitor, partial curve] |  |
| CCc1nnc(N2C(=O)c3ccc(Oc4ccc([N+](=O)[O-])cc4)cc3C2=O)s1 |  | inactive: 3.23% |
| Cc1ccc(-n2c(C)cc(/C=N/NC(=O)c3ccncc3)c2C)c(C)c1 | active: 12.6 µM |  |
| COCCNC(=O)COC(=O)/C=C/c1c(C)nn(Cc2ccc(Cl)cc2Cl)c1Cl |  | inactive: -10.5% |
| CC(=O)OCC(=O)c1ccc2ccn(C(C)=O)c2c1 | inconclusive [inhibitor, single point] |  |
| O=C(CN1CCSCC1)N1CCc2[nH]c3ccc(Br)cc3c2C1 | active: 15 µM |  |
| COc1ccc2c(c1)C(=O)N(c1ccc(C)cc1C)C(=O)C2 | inconclusive [inhibitor, single point] |  |
| O=C(OC(C(=O)Nc1ccc([N+](=O)[O-])cc1Br)c1ccccc1)c1ccccc1 (stereo unspecified) | inconclusive [inhibitor, single point] |  |
| CCCCCCc1ccc(OCC(=O)OC)cc1OCC(=O)OC | inconclusive [inhibitor, single point] |  |

— PubChem BioAssay AID1030 (National Center for Advancing Translational Sciences (NCATS), 2008)
